Assay results published in the supplement of paper PMC12217912.
The other results are listed elsewhere or left out. Sequences were assembled here from the parent chain. Values near 0.05 are background.

B1: TEV protease; numbered along this chain (parent)
chain: MGESLFKGPRDYNPISSSICHLTNESDGHTTSLYGIGFGPFIITNKHLFRRNNGTLVVQSLHGVFKVKDTTTLQQHLVDGRDMIIIRMPKDFPPFPQKLKFREPQREERICLVTTNFQTKSMSSMVSDTSCTFPSGDGIFWKHWIQTKDGQCGSPLVSTRDGFIVGIHSASNFTNTNNYFTSVPKNFMELLTNQEAQQWVSGWRLNADSVLWGGHKVFMVKPEEPFQPVKEATQL

Variants of: B1
Test: raw area under fraction-flipped curve 0-4 h after induction (AUC4h, not background-subtracted), DNA-recorder readout of cleavage of the substrate (dimensionless); higher = more cleavage of the substrate by the protease variant
Conditions: temperature: 34 °C; time window: 0-4 h after rhamnose induction
Description: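 In vivo DNA recorder in E. coli TOP10(DE3) ΔrhaA at 34 °C. Each TEVp single-site mutant (parent TEVp 0) is paired with a single-site variant of the 7-mer TEVs (canonical ENLYFQ|S). The substrate sits between flexible linkers in a Bxb1-sfGFP-TEVs-SsrA fusion, so cleavage stabilises Bxb1 and speeds flipping of a recombination array, read by NGS. The value is the raw area under the fraction-flipped curve over 0-4 h after rhamnose induction (AUC4h), with ≥20 reads per time point. It is not background-subtracted; inactive controls average about 0.047.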
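Further: Bxb1 expression induced with 0.2% (w/v) L-rhamnose at OD600 near 0.5, cultures sampled hourly, flipped fraction per protease–substrate barcode pair counted by paired-end Illumina sequencing.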

Variant	area with substrate ENLYFAS	area with substrate ENLYFCS	area with substrate ENLYFDS	area with substrate ENLYFES	area with substrate ENLYFHS	area with substrate ENLYFIS	area with substrate ENLYFKS	area with substrate ENLYFLS	area with substrate ENLYFMS	area with substrate ENLYFNS	area with substrate ENLYFPS	area with substrate ENLYFRS	area with substrate ENLYFTS	area with substrate ENLYFFS	area with substrate ENLYFGS	area with substrate ENLYFYS	area with substrate ENLYFSS	area with substrate ENLYFVS	area with substrate ENLYFWS
A232R	0.0586	0.0596	0.0663	0.0632	0.0556	0.0572	0.003	0.0645	0.0769	0.0651	0.0591	0.0638	0.0594						
A232Y	0.0574	0.0671		0.0808	0.0529	0.0384		0.0636	0.0618	0.0609	0.0563	0.0476		0.055	0.032	0.0784			
L235H	0.0571			0.0782	0.0553	0.0513			0.0676	0.0713	0.0344		0.0637	0.0569		0.0622	0.0738	0.0869	0.056
G8M		0.0711			0.0593	0.0134					0.0479							0.0591	0.0542
D11E		0.0751		0.0517	0.0549	0.0529	0.0781		0.0689	0.0711	0.0627	0.0471	0.0657	0.0779	0.0544	0.06	0.0656	0.05	0.0608
Y12A		0.0642	0.0497	0.059		0.0534	0.0755		0.0693	0.0578	0.0392	0.0578		0.0635	0.0243	0.059	0.053	0.0764	0.063
S18M		0.0698	0.0676	0.0613	0.0707	0.062	0.0532		0.0597		0.0718	0.0348	0.0552		0.0791	0.0603	0.0571	0.0444	0.0544
H21E		0.0649	0.0668	0.0616	0.06	0.0544	0.0697	0.0561	0.0659		0.0552	0.0531	0.0576	0.0657		0.0589		0.0595	0.0523
H21F		0.065		0.0598	0.0629	0.0575	0.0594	0.0515	0.0595	0.0576	0.0469		0.0629		0.06		0.0575	0.0614	
T23G		0.0482	0.0579	0.0673	0.0523	0.0602	0.0523	0.0503	0.0347	0.0929	0.0505	0.0674	0.0415	0.0676	0.0477	0.0628	0.0502	0.0609	0.0584
L33K		0.067		0.0515		0.0616	0.063		0.0602	0.0694	0.0581		0.0769	0.0643	0.0597		0.0612		
G35E		0.0463								0.0462	0.0654	0.0361	0.0437	0.045				0.0412	0.0316
P40W		0.0746	0.055	0.0653		0.0559	0.0659	0.0383	0.0643		0.0572	0.0653		0.0622					
N45L		0.0577		0.0633		0.0526	0.0443	0.072	0.0718	0.104	0.0569	0.0551	0.0693	0.0695			0.0531	0.058	
N45W		0.0681	0.055	0.0659		0.059	0.0514		0.0596	0.0659	0.055	0.0608	0.0595	0.0674	0.0719	0.0557	0.0513	0.035	0.0565
L48Y		0.0673				0.0536			0.0635	0.0792	0.0562		0.0621	0.0805	0.0621				
L56K		0.0371	0.049		0.0568	0.0398	0.0534	0.039	0.0473	0.0451	0.035	0.0498		0.0552	0.0468	0.0535	0.0481	0.0413	0.0914
V57R		0.0667	0.0576	0.0506		0.0527			0.0452	0.0884			0.0618		0.0435		0.0553	0.0664	0.0656
V64E		0.0575				0.0551	0.0719	0.0777	0.0603		0.061		0.0673	0.0415			0.0421	0.0783	
V64G		0.057		0.0668		0.0576			0.0646	0.0682	0.0583	0.055	0.048	0.0727					0.0521
V64I		0.0805		0.0739	0.0474		0.0719	0.076	0.0736	0.0748	0.0582		0.0585	0.0657	0.0472	0.0535	0.0742		
V64Y		0.0455				0.0638	0.0697		0.0611										
K66S		0.0692		0.072		0.0532	0.0555		0.068		0.0656			0.0574	0.0636				
L77P		0.0474			0.0539	0.0694	0.0615	0.0622	0.0539			0.0669				0.0572		0.0665	0.0454
D79N		0.0561				0.0503			0.0534	0.0658	0.0599	0.0574		0.0318			0.0522		
G80I		0.0676	0.0475	0.081	0.0436	0.0405	0.0526		0.0584	0.044			0.0394	0.0687	0.0503	0.0492			0.0558
M83F		0.0595					0.0681	0.0646	0.0668		0.0566	0.0826	0.0701				0.0517		0.0795
P104N		0.0477		0.0409		0.0458	0.0511	0.0277	0.0501	0.0571	0.0486		0.0434	0.0583		0.047	0.0437		0.043
P104S		0.0523	0.053	0.0552		0.0425	0.049	0.0192	0.0472	0.0469	0.045	0.0529	0.0561	0.0619		0.0357	0.0441	0.0588	0.0497
